Among the data in the supplement of paper PMC9446081 are relative growth values, retold here.

SMILES strings stand for the structures. Out of some 39,000 compounds screened, about 220 (0.56%) showed activity. Some of the results follow.
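Note: static incubation at 37 °C against the wild-type strain, values averaged over two biological replicates.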

This assay deals with Escherichia coli K-12 BW25113. Description: relative growth (OD600 normalised to plate interquartile mean) (fraction); higher = less growth inhibition, active = 0.2 or less. The note with it: 50 µM; LB; incubation time: overnight (16-24 h).
For the molecule `C[C@H]1CN([C@@H](C)CO)C(=O)c2cc(C#Cc3ccc(F)cc3)cnc2O[C@@H]1CN(C)CC1CCOCC1`, the relative growth is inactive: 0.981. Next, `C[C@@H]1CN([C@H](C)CO)C(=O)c2cc(NC(=O)Nc3ccc(F)cc3)ccc2O[C@@H](C)CCCCO[C@@H]1CN(C)Cc1ccc2c(c1)OCO2`: inactive: 1.04; `C[C@@H]1CCCCO[C@H](CN(C)C(=O)Nc2ccc3c(c2)OCO3)[C@@H](C)CN([C@@H](C)CO)C(=O)c2cc(NC(=O)CCC(F)(F)F)ccc2O1`: inactive: 0.989.

On to `C[C@H](CO)N1C[C@H](C)[C@H](CN(C)CC2CCOCC2)Oc2cc(Br)ccc2S1(=O)=O`, for which the relative growth was inactive: 1. As for `COCC#Cc1ccc2c(c1)O[C@H](CN(C)C(=O)C1CCOCC1)[C@H](C)CN([C@H](C)CO)S2(=O)=O`, the figure is inactive: 1; as for `C[C@@H]1CN([C@H](C)CO)C(=O)c2cc(NC(=O)Cc3ccccc3)ccc2O[C@@H](C)CCCCO[C@H]1CN(C)C(=O)Nc1ccc2c(c1)OCO2`, inactive: 1.02; as for `C[C@H]1CN([C@@H](C)CO)C(=O)Cc2cc(NC(=O)Nc3ccc(C(F)(F)F)cc3)ccc2O[C@@H]1CN(C)C(=O)Nc1ccc(C(F)(F)F)cc1`, inactive: 1.02. Next, `C[C@@H]1CN([C@@H](C)CO)C(=O)c2cccc(NC(=O)NC3CCCCC3)c2O[C@@H]1CN(C)Cc1ccc(Cl)c(Cl)c1`: inactive: 1; `Cc1ccc(S(=O)(=O)Nc2ccc3c(c2)C(=O)N([C@H](C)CO)C[C@H](C)[C@@H](CN(C)C(=O)Nc2ccc4c(c2)OCO4)OCCCC[C@H](C)O3)cc1`: inactive: 1.04.

As to `CC(Cc1ccc(O)c(O)c1)C(C)Cc1ccc(O)c(O)c1` (stereo not given), the relative growth was inactive: 0.979. As for `C[C@@H]1CN([C@H](C)CO)C(=O)c2cc(NC(=O)Nc3ccc4c(c3)OCO4)ccc2O[C@@H](C)CCCCO[C@H]1CN(C)Cc1ccncc1`, the figure is inactive: 1. For the molecule `C[C@@H]1CCCCO[C@@H](CN(C)C(=O)C2CCCCC2)[C@@H](C)CN([C@H](C)CO)C(=O)c2cc(NC(=O)C3CCCCC3)ccc2O1`, the relative growth is inactive: 1.03. With `O=C(O)CCN1C(=O)[C@@H]2[C@@H](C1=O)[C@@H]1C=C[C@@H]2C1`, the relative growth is inactive: 1.02. Next, `COc1ccc(S(=O)(=O)N[C@H]2CC[C@@H](CC(=O)N3CCN(c4ccccc4)CC3)O[C@H]2CO)cc1`: inactive: 1.02. As for `C[C@@H]1CN([C@H](C)CO)C(=O)c2cc(NC(=O)Nc3ccccc3)ccc2O[C@@H](C)CCCCO[C@H]1CN(C)Cc1ccc(C(F)(F)F)cc1`, the relative growth was inactive: 0.969.

In the case of `CC1(C)c2nc(-c3ccc(F)cc3)c(Nc3ccc(F)cc3)n2CCN1C(=O)CN`, the relative growth was inactive: 0.999. Next, `C[C@H]1CN([C@@H](C)CO)C(=O)c2cccc(NC(=O)Nc3ccc(F)cc3)c2O[C@H]1CN(C)Cc1ccc(-c2ccccc2)cc1`: inactive: 0.896; `COc1ccc(S(=O)(=O)N(C)C[C@H]2Oc3c(NC(=O)c4cc(C)nn4C)cccc3C(=O)N([C@@H](C)CO)C[C@@H]2C)cc1`: inactive: 0.978; `COc1ccc(NC(=O)N(C)C[C@H]2Oc3ccc(NS(=O)(=O)c4c(C)noc4C)cc3CC(=O)N([C@@H](C)CO)C[C@@H]2C)cc1`: inactive: 1.03. With `Cc1ccc(S(=O)(=O)N(C)C[C@@H]2Oc3ccc(NS(=O)(=O)c4c(C)noc4C)cc3C(=O)N([C@H](C)CO)C[C@@H]2C)cc1`, the relative growth is inactive: 1.01. For `C[C@@H]1CCCCO[C@@H](CN(C)C(=O)Nc2ccccc2)[C@H](C)CN([C@@H](C)CO)C(=O)c2cc(NS(=O)(=O)c3ccc(Cl)cc3)ccc2O1`, the relative growth was inactive: 1. As for `Cc1noc(C)c1NC(=O)N(C)C[C@H]1Oc2c(NS(=O)(=O)c3cn(C)cn3)cccc2C(=O)N([C@H](C)CO)C[C@@H]1C`, the figure is inactive: 0.997; as for `C[C@@H]1CN([C@@H](C)CO)C(=O)Cc2cc(NS(=O)(=O)c3ccccc3)ccc2O[C@@H]1CN(C)S(C)(=O)=O`, inactive: 0.99; as for `C[C@@H]1CN([C@@H](C)CO)C(=O)Cc2cc(NS(=O)(=O)c3ccc(F)cc3)ccc2O[C@H]1CN(C)Cc1ccc(-c2ccccc2)cc1`, inactive: 0.949. Next, `C[C@@H]1CCCCO[C@H](CN(C)S(=O)(=O)c2ccc(Cl)cc2)[C@H](C)CN([C@@H](C)CO)C(=O)c2cc(NC(=O)Nc3ccc(C(F)(F)F)cc3)ccc2O1`: inactive: 1.04; `O=C(C1=C[C@H](c2ccc(C(F)(F)F)cc2)C[C@H](OCc2ccc(CO)cc2)O1)N1CCN(Cc2ccc3c(c2)OCO3)CC1`: inactive: 0.934; `O=C(C[C@@H]1CC[C@@H]2[C@H](COC[C@@H](O)CN2S(=O)(=O)c2ccc(F)cc2)O1)NCc1ccc(Cl)c(Cl)c1`: inactive: 0.997. As for `Cc1cc(C(=O)Nc2cccc3c2O[C@H](CN(C)Cc2ccccc2)[C@@H](C)CN([C@@H](C)CO)C3=O)n(C)n1`, the figure is inactive: 1.01. `C[C@@H]1CN([C@H](C)CO)C(=O)c2cc(NS(=O)(=O)c3cccs3)ccc2O[C@@H]1CN(C)C(=O)Nc1cccc2ccccc12`: the relative growth was inactive: 1.01. As for `COc1ccccc1-c1cnc2c(c1)C(=O)N([C@H](C)CO)C[C@@H](C)[C@@H](CN(C)C(=O)c1cccnc1)O2`, the figure is inactive: 1.01. As for `C[C@H](CO)N1C[C@H](C)[C@@H](CN(C)Cc2ccccc2)Oc2c(NC(=O)c3cnccn3)cccc2C1=O`, the relative growth is inactive: 1.03. As for `C[C@H]1CN([C@@H](C)CO)C(=O)c2cc(NS(=O)(=O)c3cn(C)cn3)ccc2O[C@H]1CN(C)CC1CCCCC1`, the figure is inactive: 1.01; as for `C[C@@H]1CN([C@H](C)CO)C(=O)c2cc(/C=C/c3ccccc3)cnc2O[C@H]1CN(C)S(=O)(=O)c1cn(C)cn1`, inactive: 1.05; as for `COc1ccc(CN(C)C[C@@H]2Oc3ccc(NC(=O)CCCCCC(=O)Nc4ccccc4N)cc3CC(=O)N([C@@H](C)CO)C[C@@H]2C)cc1`, inactive: 0.941.

As to `Cc1ccc(S(=O)(=O)Nc2ccc3c(c2)C(=O)N([C@H](C)CO)C[C@H](C)[C@@H](CN(C)S(=O)(=O)c2ccc(F)cc2)OCCCC[C@@H](C)O3)cc1`, the relative growth is inactive: 1.02.

In the case of `O=C(N/N=C/[C@H](O)[C@@H](O)[C@@H](O)[C@H](O)CO)c1ccccn1`, the relative growth was inactive: 1. Regarding `C[C@@H]1CN([C@@H](C)CO)C(=O)CCCn2cc(nn2)CO[C@@H]1CN(C)S(=O)(=O)c1cccc(C#N)c1`, the relative growth was inactive: 0.986. Next, `CCCC(=O)NCc1nccc(N(C)C)n1`: inactive: 0.994; `Cc1noc(C)c1S(=O)(=O)N(C)C[C@H]1Oc2ccc(NS(=O)(=O)c3ccc(F)cc3)cc2C(=O)N([C@@H](C)CO)C[C@H]1C`: inactive: 0.996; `C[C@@H]1CCCCO[C@H](CN(C)S(=O)(=O)c2ccc(Cl)cc2)[C@H](C)CN([C@@H](C)CO)C(=O)c2cc(NC(=O)CCC(F)(F)F)ccc2O1`: inactive: 1.03. As to `C[C@H]1CN([C@@H](C)CO)C(=O)c2c(c3ccccc3n2C)-c2ccccc2CO[C@@H]1CN(C)Cc1ccc2c(c1)OCCN2C`, the relative growth is inactive: 0.992. Next, `C1CC(N2CCNCC2)C1`: inactive: 1.01. Next, `COc1ccc2c3c(n(c2c1)C)[C@H](CO)N(C[C@]13CN(C1)C(=O)C1CC1)C(=O)CN1CCOCC1`: inactive: 1.01; `C[C@@H]1CN([C@H](C)CO)S(=O)(=O)c2ccc(C#Cc3ccccc3)cc2O[C@H]1CN(C)S(C)(=O)=O`: inactive: 1.04; `CN(C)CC(=O)N1CC(=O)N2[C@H](CO)[C@H](c3ccc(C#Cc4cccnc4)cc3)[C@H]2C1`: inactive: 0.993. Turning to `CO[C@H]1CN(C)C(=O)c2cc(NC(=O)Nc3cccc(F)c3)ccc2OC[C@H](C)N(C(=O)Nc2c(C)noc2C)C[C@@H]1C`, the relative growth is inactive: 1.03. As for `Cc1[nH]c2ccccc2c1C(=O)CSc1ccc(Cl)cc1`, the figure is inactive: 1.02; as for `Cc1ccc(/C=N/Nc2cnnc(=O)[nH]2)o1`, inactive: 0.975. For `C[C@H](CO)N1C[C@H](C)[C@@H](CN(C)Cc2ccc3c(c2)OCCN3C)OCc2ccccc2-c2c(n(C)c3ccccc23)C1=O`, the relative growth is inactive: 0.861. As for `Cc1noc(C)c1NC(=O)Nc1ccc2c(c1)C(=O)N([C@@H](C)CO)C[C@H](C)[C@H](CN(C)C(=O)Nc1ccc(C(F)(F)F)cc1)OCCCC[C@H](C)O2`, the figure is inactive: 1; as for `C[C@@H]1CN([C@@H](C)CO)C(=O)CCCn2nncc2CO[C@H]1CN(C)S(=O)(=O)c1ccc(Oc2ccccc2)nc1`, inactive: 1.01.

With `COc1ccccc1NC(=O)N(C)C[C@@H]1OCc2ccccc2-c2c(n(C)c3ccccc23)C(=O)N([C@H](C)CO)C[C@H]1C`, the relative growth is inactive: 0.993. Turning to `CNC[C@H]1Oc2cc(C#CCN(C)C)ccc2S(=O)(=O)N([C@H](C)CO)C[C@H]1C`, the relative growth was inactive: 1. In the case of `CN(C)S(=O)(=O)c1ccc(CN)cc1`, the relative growth is inactive: 1.02. Next, `COc1cccc(S(=O)(=O)N(C)C[C@H]2Oc3cc(C4=CCCC4)ccc3S(=O)(=O)N([C@@H](C)CO)C[C@H]2C)c1`: inactive: 1.04; `N=C(N)Nc1nc(CSCC/C(N)=N\S(N)(=O)=O)cs1`: inactive: 0.911; `O=C(C[C@H]1CC[C@@H]2[C@H](COC[C@H](O)CN2C(=O)c2cnccn2)O1)N1CCN(c2ccccc2)CC1`: inactive: 1.

As for `NCC[C@H]1CC[C@H](NC(=O)C2CC2)[C@@H](CO)O1`, the relative growth is inactive: 0.992. Turning to `O=C(C[C@@H]1CC[C@H]2[C@@H](COC[C@@H](O)CN2S(=O)(=O)c2ccc(F)cc2)O1)N[C@H]1CCN(Cc2ccccc2)C1`, the relative growth was inactive: 0.98. With `CCOc1ccc(N2C(=O)/C(=C/C=C/c3ccccc3OC)S(=O)(=O)[C@@H]2c2cccc([N+](=O)[O-])c2)cc1`, the relative growth is inactive: 1.03.
